# Data taken from the supplement of paper PMC12217912.
# The list shows a part of the results. The full chains were built here from the parent and the listed change. Values near 0.05 are background.
# B1: TEV protease; numbered along this chain (parent)
# chain: MGESLFKGPRDYNPISSSICHLTNESDGHTTSLYGIGFGPFIITNKHLFRRNNGTLVVQSLHGVFKVKDTTTLQQHLVDGRDMIIIRMPKDFPPFPQKLKFREPQREERICLVTTNFQTKSMSSMVSDTSCTFPSGDGIFWKHWIQTKDGQCGSPLVSTRDGFIVGIHSASNFTNTNNYFTSVPKNFMELLTNQEAQQWVSGWRLNADSVLWGGHKVFMVKPEEPFQPVKEATQL
# Variants of: B1
# Assay: raw area under fraction-flipped curve 0-4 h after induction (AUC4h, not background-subtracted), DNA-recorder readout of cleavage of the substrate (dimensionless); higher = more cleavage of the substrate by the protease variant
# Details: temperature: 34 °C; time window: 0-4 h after rhamnose induction
# Procedure: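 In vivo DNA recorder in E. coli TOP10(DE3) ΔrhaA at 34 °C. Each TEVp single-site mutant (parent TEVp 0) is paired with a single-site variant of the 7-mer TEVs (canonical ENLYFQ|S). The substrate sits between flexible linkers in a Bxb1-sfGFP-TEVs-SsrA fusion, so cleavage stabilises Bxb1 and speeds flipping of a recombination array, read by NGS. The value is the raw area under the fraction-flipped curve over 0-4 h after rhamnose induction (AUC4h), with ≥20 reads per time point. It is not background-subtracted; inactive controls average about 0.047.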
# 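Further: Bxb1 expression induced with 0.2% (w/v) L-rhamnose at OD600 near 0.5, cultures sampled hourly, flipped fraction per protease–substrate barcode pair counted by paired-end Illumina sequencing.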
Variant,area with substrate ENAYFQS,area with substrate ENCYFQS,area with substrate ENDYFQS,area with substrate ENEYFQS,area with substrate ENFYFQS,area with substrate ENHYFQS,area with substrate ENIYFQS,area with substrate ENNYFQS,area with substrate ENRYFQS,area with substrate ENSYFQS,area with substrate ENTYFQS,area with substrate ENVYFQS,area with substrate ENKYFQS,area with substrate ENMYFQS,area with substrate ENPYFQS,area with substrate ENQYFQS,area with substrate ENWYFQS,area with substrate ENYYFQS,area with substrate ENGYFQS
K148T,0.0031,0.0418,0.0622,0.0622,0.0653,0.0525,0.0794,0.0635,0.0585,0.0377,0.0648,0.0659,,,,,,,
K148N,0.0738,0.0649,0.069,0.0604,,0.0724,0.0745,0.0674,,0.06,0.0676,0.0703,0.0685,0.0649,0.0692,0.0608,0.0013,0.0851,
K148M,0.065,0.0593,0.0572,0.0596,0.0639,0.0549,0.122,0.043,0.0488,0.0462,0.057,,,0.0499,0.0613,0.0565,,,0.0422
S135I,0.0557,0.0697,0.0422,0.0639,0.0475,,,0.0871,0.0591,0.0571,0.0586,0.0415,0.0591,,0.0771,,,0.0629,0.0659
S135D,0.0594,0.0685,,0.0592,0.0544,,0.102,,,0.0654,,,,,0.0588,0.0822,,,0.0667
L156K,0.0406,0.0526,0.0659,0.0534,,0.0537,0.0262,0.024,0.0625,0.0412,0.0563,0.0526,,,,0.0803,,0.0614,0.0581
Q151S,0.0652,0.071,0.0331,0.0613,0.0365,0.037,0.114,0.0534,0.0517,0.0552,0.0565,,0.0673,,,,,0.0512,0.0697
W144Q,0.0526,0.0694,,0.071,,,,0.0731,0.0284,0.0653,0.0555,0.0665,0.0646,0.0578,0.0594,0.0693,,,
D149S,0.0546,0.0208,0.0634,0.058,,0.048,,,,0.0686,,0.0429,0.059,0.0932,0.0589,0.0564,,0.0494,0.0535
D149Q,0.0683,0.0584,0.073,0.0561,0.0581,0.0587,,,0.0551,0.0686,0.0808,0.0614,0.06,,,0.0641,,,0.0562
G162H,0.0625,0.059,0.0564,0.0635,0.0708,0.047,,0.0626,0.078,0.0673,0.0635,0.0855,0.0724,,0.0557,0.0598,0.0408,,0.0776
N116A,0.0456,0.0686,0.0579,0.0258,0.057,,0.111,,0.0628,0.0405,0.0632,0.0677,,0.0795,0.0524,0.0555,0.0473,,0.0452
T159Y,0.0039,0.0498,0.0573,0.077,0.0741,,0.103,0.0478,0.063,0.0694,,,,,0.0651,0.059,,0.0515,
T159G,0.067,,0.0606,,,0.0609,,,0.0542,0.0595,0.0575,0.0802,,,0.0531,0.0551,,,
T159E,0.0571,0.0658,,0.0621,0.0601,,,0.0553,,0.0232,,0.0752,0.063,0.0775,,0.0594,,,0.0616
P134E,0.0548,0.0504,0.0689,0.0636,0.0538,0.0499,,,,0.0612,0.0623,,0.0392,0.0683,,0.0708,,,0.0814
P134L,0.0459,,0.0644,0.0592,,0.0577,,0.049,0.0734,0.0569,0.0624,0.0641,,0.07,0.0279,0.0518,,0.0523,
F117M,0.073,0.0564,,0.0658,0.0544,,,,0.047,0.105,,,0.0635,,,0.0856,,,0.0623
T115C,0.0521,,0.0657,0.0612,0.053,0.0627,,,0.0638,0.0552,0.056,0.0621,,,0.0608,0.0426,,0.0622,0.0577
S121A,0.144,0.0573,0.0644,0.0526,0.0622,0.0633,0.122,0.0756,,0.0462,0.0513,,0.0613,,,0.0651,,0.0583,0.0615
S121E,0.0649,0.0707,,0.059,0.0681,0.0696,,,0.0642,0.0225,0.0614,0.0813,,,,0.0671,,,0.0571
I110H,0.0515,0.0488,0.0516,0.0461,0.0458,0.0529,,0.053,,0.0547,0.0517,0.0546,0.0388,,0.0559,0.0583,,0.0687,0.0478
I145C,0.0744,0.081,0.0529,0.0759,0.0513,0.086,0.137,0.0591,,0.125,0.0612,,0.0737,,,0.0622,,0.049,0.0801
I139N,0.0623,0.0601,0.0531,0.0654,0.056,0.0678,0.103,,0.0585,0.0664,0.0597,0.0755,0.0557,,0.0673,0.0569,0.0586,,
R160A,0.0563,0.0691,0.0621,0.0667,0.075,0.0617,0.117,0.0538,0.0692,0.0612,0.0716,0.0698,0.0789,0.0754,0.0438,0.058,,0.063,
Q118A,0.0639,0.0634,0.0068,0.0647,0.0622,0.0569,0.123,0.0602,0.061,0.0551,0.0686,0.0764,0.0608,0.0701,0.057,0.0351,,,0.141
